Measured values taken from the supplement of paper PMC10441789.
Some of the results follow. Antibody binding of pooled human sera (four to six donors per pool; dilution not stated) to peptides of the Trypanosoma cruzi antigen TSSA on microarrays. Quantile-normalised fluorescence in arbitrary units, mean of duplicate arrays; higher = more binding. No active / inactive call. The uninfected pools are read here as the healthy donors of the same country. The strongest signals lie near the top of the scale (about 60,000).

Assays:
Test in all cases: antibody binding signal (normalised fluorescence) (arbitrary fluorescence units); higher = stronger serum antibody binding to peptide
[1] = system: pooled sera of chronic Chagas disease patients, Argentina
Protocol: (§1)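 Microarray of 15-residue peptides over residues 30-55 of Trypanosoma cruzi TSSAII, each with 1 to 10 substitutions at naturally variable positions, probed with one serum pool per country.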

[2] = system: pooled sera of chronic Chagas disease patients, Bolivia
Protocol: as §1

[3] = system: pooled sera of chronic Chagas disease patients, Brazil
Protocol: as §1

[4] = system: pooled sera of chronic Chagas disease patients, Colombia
Protocol: as §1

[5] = system: pooled sera of chronic Chagas disease patients, Mexico
Protocol: as §1

[6] = system: pooled sera of chronic Chagas disease patients, USA
Protocol: as §1

[7] = system: pooled sera of uninfected people, Argentina
Protocol: as §1

[8] = system: pooled sera of uninfected people, Bolivia
Protocol: as §1

[9] = system: pooled sera of uninfected people, Brazil
Protocol: as §1

[10] = system: pooled sera of uninfected people, Colombia
Protocol: as §1

[11] = system: pooled sera of uninfected people, Mexico
Protocol: as §1

[12] = system: pooled sera of uninfected people, USA
Protocol: as §1

Row | Sequence | antibody binding signal [1] | antibody binding signal [2] | antibody binding signal [3] | antibody binding signal [4] | antibody binding signal [5] | antibody binding signal [6] | antibody binding signal [7] | antibody binding signal [8] | antibody binding signal [9] | antibody binding signal [10] | antibody binding signal [11] | antibody binding signal [12]
1 | SGTDKKTAAGEAPSQ | 286 | 10100 | 8770 | 2470 | 323 | 6870 | 180 | 227 | 319 | 579 | 245 | 113
2 | TENKTAAGETPSPPG | 25500 | 280 | 896 | 181 | 339 | 2120 | 188 | 224 | 198 | 154 | 170 | 1010
3 | TPPSGTEKKAATGET | 28300 | 13400 | 22400 | 468 | 2190 | 1380 | 657 | 210 | 284 | 475 | 175 | 116
4 | SGKDNKPAAGEAPSQ | 2280 | 15800 | 31200 | 1270 | 867 | 16700 | 461 | 734 | 206 | 585 | 401 | 94.6
5 | GTENKTAAGEAPSQP | 29800 | 23400 | 39800 | 694 | 960 | 8310 | 196 | 384 | 195 | 225 | 190 | 124
6 | PPSGTDKKAAAGETP | 10200 | 10700 | 25900 | 3430 | 31400 | 2320 | 399 | 530 | 268 | 690 | 2700 | 202
7 | KEKKAAAGGTPSPSG | 181 | 186 | 124 | 1740 | 162 | 1280 | 95.4 | 82.4 | 474 | 97.9 | 145 | 133
8 | SGKDKKTAAGETPSP | 568 | 233 | 458 | 846 | 980 | 2030 | 160 | 105 | 89.6 | 359 | 83.3 | 214
9 | KAAAGGTPSPPGASS | 253 | 194 | 164 | 4670 | 290 | 684 | 158 | 111 | 462 | 179 | 79.1 | 129
10 | ENKAAAGGAPSQSGA | 418 | 1300 | 1990 | 3820 | 433 | 643 | 311 | 218 | 255 | 239 | 160 | 329
11 | KDKKAATGETPSQSG | 476 | 260 | 6630 | 165 | 212 | 6840 | 297 | 106 | 102 | 212 | 102 | 104
12 | PPSGTDKKAATGETP | 4600 | 9140 | 21100 | 4240 | 13400 | 10200 | 591 | 337 | 424 | 690 | 2260 | 244
13 | ENKTATGGTPSPSGA | 419 | 2810 | 846 | 601 | 420 | 782 | 328 | 181 | 499 | 639 | 248 | 184
14 | SGKDKKPATGETPSP | 29600 | 3650 | 20800 | 708 | 548 | 19800 | 148 | 196 | 125 | 692 | 584 | 276
15 | GTDKKAATGGTPSPP | 435 | 406 | 295 | 2310 | 911 | 1280 | 225 | 175 | 414 | 789 | 131 | 124
16 | GKEKKPAAGGTPSQS | 800 | 166 | 239 | 1790 | 885 | 1150 | 127 | 96.7 | 521 | 94.5 | 116 | 287
17 | TEKKTAAGGTPSPPG | 1140 | 236 | 213 | 13900 | 717 | 2710 | 136 | 123 | 1460 | 474 | 481 | 296
18 | SGKEKKPATGGTPSQ | 3910 | 411 | 3770 | 2760 | 3800 | 4230 | 307 | 139 | 194 | 111 | 88.9 | 230
19 | KDNKAATGGTPSPSG | 282 | 362 | 296 | 222 | 241 | 287 | 160 | 1540 | 178 | 178 | 72.5 | 251
20 | PPSGTDKKTAAGGTP | 6790 | 1800 | 16000 | 13400 | 29200 | 2430 | 223 | 197 | 1110 | 357 | 636 | 196
21 | KENKAATGGTPSPPG | 221 | 390 | 282 | 163 | 214 | 375 | 134 | 79.1 | 161 | 131 | 79.3 | 129
22 | GKDKKPAAGETPSQS | 536 | 217 | 1990 | 737 | 1080 | 1310 | 99.1 | 120 | 88.3 | 151 | 71 | 73
23 | GTDKKAATGETPSPP | 1100 | 1570 | 15400 | 2110 | 513 | 11900 | 496 | 302 | 236 | 543 | 320 | 823
24 | SGKEKKTATGGAPSQ | 3560 | 253 | 3340 | 2450 | 3570 | 4680 | 248 | 153 | 89.9 | 107 | 148 | 108
25 | PPSGKENKAAAGGAP | 5620 | 903 | 5460 | 2780 | 4400 | 3800 | 3110 | 1390 | 134 | 616 | 173 | 286

Row | Sequence | antibody binding signal [1] | antibody binding signal [2] | antibody binding signal [3] | antibody binding signal [4] | antibody binding signal [5] | antibody binding signal [6] | antibody binding signal [7] | antibody binding signal [8] | antibody binding signal [9] | antibody binding signal [10] | antibody binding signal [11] | antibody binding signal [12]
26 | GKDNKTAAGGTPSPS | 677 | 203 | 185 | 3250 | 562 | 1380 | 133 | 109 | 196 | 192 | 164 | 125
27 | GKDKKPAAGGAPSPP | 671 | 240 | 276 | 2060 | 1420 | 1390 | 134 | 88.2 | 113 | 88.7 | 71.7 | 90.8
28 | GKENKPAAGGAPSPS | 1130 | 286 | 4450 | 3570 | 3080 | 6760 | 595 | 178 | 119 | 109 | 149 | 109
29 | TDKKPATGETPSPSG | 32000 | 26200 | 28800 | 334 | 134 | 23500 | 165 | 377 | 313 | 195 | 1740 | 2340
30 | TISTPPSGTENKAAA | 50200 | 51300 | 55600 | 437 | 4890 | 30000 | 6550 | 1170 | 514 | 1240 | 293 | 1760
31 | SGTDNKTATGGTPSP | 658 | 1020 | 43100 | 703 | 425 | 465 | 252 | 653 | 1870 | 644 | 201 | 253
32 | TENKTATGEAPSQPG | 23600 | 34900 | 41500 | 132 | 264 | 22900 | 191 | 97.2 | 271 | 167 | 161 | 116
33 | TPPSGKEKKAAAGGT | 4780 | 232 | 369 | 1210 | 12900 | 1740 | 250 | 190 | 651 | 162 | 82.6 | 138
34 | GKEKKPAAGETPSQS | 17400 | 881 | 3810 | 8040 | 9340 | 7040 | 144 | 117 | 101 | 177 | 90.6 | 291
35 | EKKPATGETPSPSGA | 34500 | 26700 | 28200 | 318 | 223 | 21800 | 218 | 697 | 345 | 207 | 1740 | 1180
36 | SGTDKKAATGEAPSQ | 24100 | 37100 | 31500 | 2280 | 493 | 24900 | 350 | 126 | 131 | 636 | 830 | 201
37 | KENKTAAGGAPSQPG | 251 | 284 | 2270 | 2380 | 276 | 1100 | 225 | 109 | 385 | 105 | 100 | 160
38 | SGTDKKTAAGGTPSP | 1510 | 197 | 583 | 17100 | 720 | 2030 | 172 | 135 | 687 | 253 | 411 | 220
39 | PSGTDNKPAAGEAPS | 32200 | 20300 | 45200 | 4170 | 533 | 17200 | 207 | 703 | 644 | 442 | 389 | 205
40 | KAATGGTPSQSGASS | 536 | 335 | 302 | 396 | 358 | 194 | 506 | 157 | 232 | 125 | 207 | 167
41 | TDKKAATGETPSPPG | 1100 | 3130 | 14300 | 212 | 249 | 10400 | 723 | 209 | 254 | 673 | 198 | 1800
42 | KDNKTAAGGTPSQPG | 927 | 249 | 458 | 4060 | 216 | 1260 | 493 | 159 | 417 | 212 | 756 | 148
43 | SGTENKTAAGGTPSQ | 28600 | 6020 | 13400 | 7140 | 944 | 4330 | 510 | 416 | 1060 | 326 | 2530 | 209
44 | KPATGGAPSQSGASS | 790 | 1060 | 791 | 161 | 681 | 484 | 300 | 987 | 153 | 139 | 284 | 205
45 | KEKKTATGGTPSPPG | 322 | 267 | 196 | 948 | 226 | 1260 | 169 | 74.9 | 108 | 114 | 87.7 | 91.4
46 | TENKPAAGETPSQPG | 42500 | 4180 | 38000 | 314 | 400 | 4970 | 155 | 950 | 217 | 286 | 137 | 156
47 | DKKPATGETPSQPGA | 35100 | 17000 | 40500 | 189 | 201 | 22000 | 264 | 919 | 291 | 291 | 1630 | 195
48 | GTENKAAAGETPSQP | 40900 | 5060 | 37800 | 4300 | 6280 | 4510 | 119 | 377 | 159 | 211 | 204 | 112
49 | TPPSGKDNKAATGGT | 651 | 322 | 1800 | 393 | 18300 | 2980 | 366 | 609 | 559 | 197 | 87.2 | 187
50 | TDNKAATGETPSQPG | 6100 | 5470 | 40000 | 134 | 169 | 12500 | 107 | 621 | 354 | 211 | 123 | 183
